# Data taken from the supplement of paper PMC10322689.
# The list shows a part of the results. Many values rest on one well or one pass, so single values are uncertain.
# Test system: mouse mesenchymal chondrosarcoma cells (HEY1-NCOA2)
# Experiment: XTT absorbance relative to DMSO control (cell viability) (fraction of DMSO control); higher = more viable cells / less growth inhibition
row,Structure (SMILES),XTT absorbance
1,CCC1(c2ccc(N)cc2)CCC(=O)NC1=O (stereo unspecified) [Aminoglutethimide],0.998
2,CN1C(=O)[C@]2(Cc3cn([C@]45C[C@@]67SS[C@@](CO)(C(=O)N6[C@H]4Nc4ccccc45)N(C)C7=O)c4ccccc34)SS[C@@]1(CO)C(=O)N2C [Chetomin],0.155
3,O[C@H]1[C@H]2[C@H](O)CCCN2C[C@H]1O [Swainsonine],0.96
4,"C[C@H]1O[C@@H](n2cnc3c(N)ncnc32)C[C@@H]1O [2',5'-dideoxyadenosine]",0.92
5,CC(C)(O)/C=C/C(=O)[C@](C)(O)[C@H]1[C@H](O)C[C@@]2(C)[C@@H]3CC=C4[C@@H](C=C(O)C(=O)C4(C)C)[C@]3(C)C(=O)C[C@]12C [Cucurbitacin I],0.505
6,N.N.[Cl][Pt][Cl] [Cisplatin],1.02
